Reference: PubChem BioAssay AID686971 (National Center for Advancing Translational Sciences (NCATS), 2013)
In all, about 360,000 compounds went through this assay and about 7,500 (2.1%) were called active. The shares of active, inactive and inconclusive entries below differ from those in the screen. The call rests on the fitted dose curve; in most records, active means well fitted cell-killing curve with a large enough effect; inconclusive means small, poorly fitted or top-dose-only effect, or effect the other way, or another doubt; inactive means no such curve, though single readings can be large or run the other way. Potencies of inconclusive entries are left out as doubtful fits.

assay: qHTS for induction of synthetic lethality in tumor cells producing 2HG: qHTS for the HT-1080-IDH1KD cell line; details: HT-1080 IDH1 knockdown viability, ATP luminescence, 48 h; activity, negative = toxicity: at 46.1 µM (top of the series) unless noted;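 on activity, negative = toxicity: 0% = DMSO wells and -100% = cell-free medium wells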
How it was run: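 In this qHTS, HT-1080 cells depleted of IDH1 are exposed for 48 h at 37 °C to compound titrations. Toxicity is scored from CellTiter-Glo luminescence, with DMSO as full viability and medium alone as none.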
Potency means the concentration at half of the fitted maximal effect; tags describe the fitted curve by direction and shape.

SMILES | Potency | activity, negative = toxicity
COc1cc(CNCCO)cc(Cl)c1OCc1ccc(Cl)cc1Cl | active: 16.4 µM | 
COc1ccc(NC(=O)C(NC(C)=O)C(=O)Nc2ccc(F)cc2)cc1 (stereo not given) | inactive | 
CC(OC(=O)c1ccccc1CCc1ccccc1)C(N)=O (stereo not given) | inactive | 
CC1=NOC(=O)/C1=C/c1ccc(O)c(Cl)c1 | inactive | 
O=C1c2ccccc2C2(c3ccccc3)N1CCN2C(=O)C(Cl)(Cl)Cl (stereo not given) | inconclusive [cytotoxic, single point] | 
COc1ccc([C@@H]2C[C@H]3[C@@H](CN2S(=O)(=O)c2ccccc2)C(=O)C[C@@H](c2ccc(OC)cc2)N3S(=O)(=O)c2ccccc2)cc1 | inactive | 
Fc1ccccc1-c1nc2nc3ccccc3nc2n1CC1CCCO1 (stereo not given) | inactive | 
Cc1ccc2cc(C=C(C#N)C#N)c(N3CCCCC3)nc2c1 | inconclusive [cytotoxic, single point] | 
Cc1ccccc1COc1cccn2c(N(C)C(=O)CCC3CCCC3)c(C)nc12 | inconclusive [cytotoxic, single point] | 
S=C(NCCc1ccc(Cl)cc1)Nc1ccc(Cl)cc1Cl | inconclusive [cytotoxic, single point] | 
CC(=O)Nc1ccc(OC(=O)c2ccc(Br)c([N+](=O)[O-])c2)cc1 | inconclusive [cytotoxic, single point] | 
Cc1cc(-n2c(SCC(=O)NCCC3=CCCCC3)nc3n[nH]c(C)c3c2=N)ccc1Cl | inconclusive [cytotoxic, single point] | 
CCCCOc1ccc(CSc2nc(C)[nH]c2[N+](=O)[O-])cc1[N+](=O)[O-] | inconclusive [cytotoxic, partial curve] | 
O=C(Nc1cccc2ccccc12)c1ccc([N+](=O)[O-])cc1 | inactive | 
Cc1ccc(C)n1-c1sc2c(c1C#N)CCC(C)C2 (stereo not given) | inactive | 
COc1ccc(Br)cc1C=NNS(=O)(=O)c1ccc(C)cc1 | inconclusive [cytotoxic, single point] | 
CCOC(=O)c1sc(=S)n(-c2ccc(C)cc2)c1SC | inconclusive [rising, partial curve] | 
CC1(C)CC2(CC(c3ccccc3F)c3cc(Cl)c(O)cc3O2)NC(=S)N1 (stereo not given) | inconclusive [cytotoxic, single point] | 
CN(C)c1ccc(/C=N/NC(=O)CCc2c[nH]c3ccccc23)cc1 | inconclusive [cytotoxic, partial curve] | 
O=C(CCc1cccc(Cl)c1)NC1CCCN(Cc2ccccc2F)C1 (stereo not given) | inactive | 
CCOc1ccc(N2C(=O)CC(N(CCc3ccc(OC)cc3)C(=O)/C=C/C(=O)O)C2=O)cc1 (stereo not given) | inactive | 
COc1ccc(OCC(O)CN(CC(O)COc2ccc(OC)cc2)c2cccc(O)c2)cc1 (stereo not given) | inconclusive [cytotoxic, single point] | 
O=C(Nc1ccccc1)c1nnsc1S(=O)(=O)c1ccc(Cl)cc1 | inconclusive [cytotoxic, single point] | 
CCOc1ccc(S(=O)(=O)Nc2cc(SCC(=O)O)c(O)c3ccccc23)cc1 | active: 23.1 µM | 

SMILES | Potency | activity, negative = toxicity
COC(=O)Nc1ccc(C)cc1NC(=O)OC | inactive | 
COCCN1C(=O)COc2ccccc2C1C(=O)NC1CCCC1 (stereo not given) | inconclusive [cytotoxic, single point] | 
c1ccc(CNc2c3ccccc3nc3ccccc23)cc1 | inconclusive [cytotoxic, single point] | 
Nc1nc2ccc(NC(=O)c3ccco3)cc2s1 | inactive | 
Nc1c(C(=O)Nc2ccc3c(c2)OCCO3)nnn1Cc1cccc(F)c1 | inconclusive [cytotoxic, partial curve, poor fit] | 
COc1ccc(N2CCN(C(=O)c3ccc(-n4nc(C)cc4C)cc3)CC2)cc1 | inactive | 
COc1cccc(-c2cnc(C(O)c3ccccc3)[nH]2)c1 (stereo not given) | inconclusive [rising, single point] | 
O=C1NC(=S)SC1=Cc1ccc(Cl)cc1 |  | inconclusive: -30.5% [cytotoxic]
O=C(NCCN1CCOCC1)C12CC3CC(C1)CC(c1ccccc1)(C3)C2 |  | inconclusive: -0.57% [cytotoxic]
CN(C)c1ccc(C(=O)/C=C/c2ccccc2)cc1 | inconclusive [cytotoxic, single point] | 
CCc1ccc(C(=O)Nc2ccc(OC)c(S(=O)(=O)N3CCCCC3)c2)cc1 | inconclusive [cytotoxic, single point] | 
C#CCn1c(=NC(=O)c2ccc(S(=O)(=O)N3CCc4ccccc4C3)cc2)sc2cc(S(N)(=O)=O)ccc21 | active: 8.2 µM | 
CCOc1ccc(NC(=O)C2CCN(S(=O)(=O)c3ccc4c(c3)C(C)(C)C(=O)N4C)CC2)cc1 | inactive | 
CCOC(=O)c1c(-c2ccc(F)cc2)csc1NC(=O)c1c(-c2ccccc2)noc1C | inconclusive [cytotoxic, partial curve] | 
COc1ccccc1N1CCN(c2ncnc3c2oc2ccccc23)CC1 | inconclusive [cytotoxic, partial curve, poor fit] | 
COc1cc(Cl)c(CC(=O)NO)cc1OC | inactive | 
O=C(COc1ccc2c3c(c(=O)oc2c1)CCC3)NCc1ccncc1 | inconclusive [rising, single point] | 
Cc1[nH]c(C)c(C(=O)/C=C/c2ccc([N+](=O)[O-])cc2)c1C | active: 11.6 µM | 
CC(C)(C)NC(=O)C(CCc1ccccc1)n1c(=O)c(-c2ccccc2)nc2ccccc21 (stereo not given) | inconclusive [cytotoxic, single point] | 
O=C(Nc1nc(-c2ccncc2)cs1)c1ccc(S(=O)(=O)N2CCOCC2)cc1 | inconclusive [cytotoxic, single point] | 
COC(=O)c1c(C)[nH]c(C(=O)/C=C/c2ccccc2F)c1C | inconclusive [rising, partial curve] | 
O=C(CCN1CCOCC1)c1ccc(Br)cc1 | active: 25.9 µM | 
O=C(Cc1ccc(Cl)c(Cl)c1)Nc1ccc(SC(F)F)cc1 | inconclusive [cytotoxic, single point] | 
O=C(N/N=C/c1ccc(O)cc1O)NC12CC3CC(CC(C3)C1)C2 | inconclusive [cytotoxic, single point] | 

SMILES | Potency | activity, negative = toxicity
CCN(CCCNC(=O)c1ccc2c(c1)NC(=O)CN2C)c1cccc(C)c1 | inconclusive [cytotoxic, single point] | 
O=C(O)c1ccccc1C(=O)Nc1ccccc1NC(=O)c1ccccc1C(=O)O | inconclusive [cytotoxic, single point] | 
CCC(=O)Oc1ccc2c(=O)c(-c3ccc4ccccc4n3)c(CC)oc2c1C | inconclusive [rising, partial curve, poor fit] | 
COc1ccc2c(c1)-c1nc(/N=C/c3c(O)ccc4ccccc34)sc1CC2 | inconclusive [cytotoxic, single point] | 
COc1cc2c(cc1NC(=O)CSc1nnc(Cc3cccs3)n1Cc1ccco1)oc1ccccc12 | inconclusive [cytotoxic, single point] | 
Cc1ccc(S(=O)(=O)NCC(c2cccnc2)N2CCc3ccccc32)cc1 (stereo not given) | inactive | 
COc1ccc(CCNC(=O)Nc2nc(C(N)Cc3ccccc3)cs2)cc1OC (stereo not given) | inconclusive [cytotoxic, single point] | 
CCc1ccc(C2c3[nH]c4ccccc4c3CCN2C(=O)c2ccc(=O)n(C)n2)cc1 (stereo not given) | inconclusive [cytotoxic, partial curve] | 
CCOC(=O)c1c(C)oc2ccc(NS(=O)(=O)c3ccc4c5c(cccc35)C(=O)N4)cc12 | inconclusive [cytotoxic, single point] | 
CCc1cc2c(=O)n(Cc3ccco3)c(SCc3c(C)noc3C)nc2s1 | active: 14.6 µM | 
COc1ccc(-c2csc(C(C)(O)c3ccc(OC)cc3)n2)cc1 (stereo not given) | inconclusive [cytotoxic, single point] | 
O=C(CC1CCCC1)NNC(=O)c1ccccc1O | inconclusive [cytotoxic, partial curve] | 
CCOC(=O)N1CCN(C(=O)CSCC(=O)Nc2nc(-c3ccc(-c4ccccc4)cc3)cs2)CC1 | inconclusive [cytotoxic, partial curve] | 
CCn1cc(C(=O)NCCCN(CC(C)C)CC(C)C)c(=O)c2cc(S(=O)(=O)N3CCOCC3)ccc21 | inactive | 
Nc1ncc(-c2nnnn2-c2ccc(Cl)cc2)c(-c2ccc(Cl)cc2)n1 | active: 7.31 µM | 
CCCCCCCCCCCCN1C(=O)CSC1c1cccnc1 (stereo not given) | inconclusive [cytotoxic, single point] | 
Cc1cccc(N2CCN(C3CCCCC3NS(=O)(=O)c3ccccc3)CC2C)c1 (stereo not given) | inconclusive [cytotoxic, single point] | 
C[C@@H]1CN([C@H](C)CO)C(=O)c2cccc(NS(=O)(=O)c3cccs3)c2O[C@H]1CN(C)Cc1ccccc1 | inactive | 
COCCNC(=S)N1CCc2cc(OC)c(OC)cc2C1COc1ccc(F)cc1 (stereo not given) | inconclusive [cytotoxic, partial curve] | 
CN(c1cccc(Cl)c1)S(=O)(=O)c1cccc(C(=O)Nc2nc3ccccc3[nH]2)c1 | inconclusive [cytotoxic, single point] | 
CCc1ccc(NC(=O)CSc2nnnn2C)cc1 | inactive | 
CC(=O)Nc1ccc(S(=O)(=O)N2CCSc3ccccc32)cc1 | active: 13 µM | 
